Over roughly 18,000 sequences, “TetR repression strength (sort-seq, GFP reporter)” has its median near 0.23; the highest 2% begin near 0.68. This is one part of the list.

The assay deals with TetR (class B, Tn10) (UniProt P04483). Description: TetR repression strength (sort-seq, GFP reporter) (relative to tetO2 = 1); higher = stronger repression. The note with it: E. coli. An outline of the steps: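 In LB with 50 µg/mL chloramphenicol, E. coli SIG10-MAX holding a low-copy library with eight randomized operator positions between a constitutive promoter and sfGFP, plus constitutive TetR, grew for 5 h at 37 °C. FACS then sorted 10^6 cells into 13 fluorescence bins for Illumina sequencing of each bin. Repression strength equals the top bin index plus one less the read-weighted mean bin, normalized to the unaltered operator. Values from three independent transformations were averaged when reads were ≥30 in every replicate and the CV was ≤0.5.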
Chain of UniProt P04483 (P04483 whole entry): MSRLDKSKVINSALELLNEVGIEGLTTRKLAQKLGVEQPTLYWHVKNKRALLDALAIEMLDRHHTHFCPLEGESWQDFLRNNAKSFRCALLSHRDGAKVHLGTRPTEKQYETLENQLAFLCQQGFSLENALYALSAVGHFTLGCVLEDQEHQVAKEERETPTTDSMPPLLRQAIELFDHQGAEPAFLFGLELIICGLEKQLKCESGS
The sequence TCCCAGGTAGTACTTGAGA had a TetR repression strength of 0.0352.

TCCCGGGCAGTTCTGGAGA came in with a TetR repression strength of 0.191.

For TCCCTGGAAGTGGGCGAGA, the TetR repression strength amounted to 0.338. Next, TCCCGATAAGTCCGGGAGA: 0.165; TCCCTATAAGTAGAGGAGA: 0.235. Next, TCCCTCGCAGTGCAGGAGA: 0; TCCCATCTAGTGGACGAGA: 0.263. Consider TCCCAGAGAGTAGGGGAGA, for which the TetR repression strength was found to be 0.281.

Sequence TCCCCGTTAGTTTTAGAGA had a TetR repression strength of 0.25. As for TCCCTTCCAGTTCACGAGA, the figure is 0.325; as for TCCCGTCAAGTTTGAGAGA, 0.0263; as for TCCCAATAAGTAGAAGAGA, 0.327.

In turn, TCCCTGGGAGTCGGAGAGA displayed a TetR repression strength of 0.276. As for TCCCGACAAGTCAGGGAGA, the figure is 0.225.

On to TCCCGAACAGTTTAGGAGA, for which the TetR repression strength was found to be 0.409. Next, TCCCGTCAAGTAGGCGAGA: 0.181; TCCCGAGAAGTTCCCGAGA: 0.128; TCCCGATAAGTCGGTGAGA: 0.45. As for TCCCAATGAGTTGTTGAGA, the TetR repression strength was 0.194. As for TCCCGGGAAGTGGCCGAGA, the figure is 0.222. As for TCCCCAGAAGTAAACGAGA, the figure is 0.323; as for TCCCAAAAAGTGCGGGAGA, 0. Sequence TCCCAATCAGTCGTGGAGA showed a TetR repression strength of 0.338. As for TCCCGGGGAGTGAATGAGA, the figure is 0.141. Next, TCCCGAGGAGTAAACGAGA: 0.276. TCCCATGAAGTGTGAGAGA had a TetR repression strength of 0.225. Next, TCCCGGGAAGTTACGGAGA: 0.707; TCCCCGCCAGTTTTTGAGA: 0.346.

As to TCCCGTATAGTCGTTGAGA, the TetR repression strength turned out to be 0.155.

In the case of TCCCTCGAAGTAGATGAGA, the TetR repression strength came to 0.104.

The sequence TCCCTTTCAGTGACCGAGA showed a TetR repression strength of 0.946. Next, TCCCGTCGAGTAAATGAGA: 0.176. As for TCCCCTAGAGTAGCGGAGA, the figure is 0.197; as for TCCCACATAGTGGGAGAGA, 0.144; as for TCCCAGGGAGTAAGCGAGA, 0.0404. As for TCCCCGCAAGTGGCGGAGA, the figure is 0.388. Regarding TCCCCTCGAGTTTTCGAGA, the TetR repression strength amounted to 0.217. As for TCCCGGAAAGTCTCGGAGA, the figure is 0.107; as for TCCCTGTTAGTTTGAGAGA, 0.856. As for TCCCACGTAGTGTGGGAGA, the figure is 0.198; as for TCCCCTCAAGTGTGGGAGA, 0.214. Next, TCCCTGAAAGTCAGCGAGA: 0.18; TCCCTATTAGTAGCCGAGA: 0.279; TCCCAAGTAGTGTTCGAGA: 0.283. TCCCTCTGAGTACCTGAGA gave a TetR repression strength of 0.2. As for TCCCACTTAGTCGCGGAGA, the figure is 0.304.

TCCCTATCAGTCGCGGAGA: the TetR repression strength was 0.456.

The sequence TCCCTATTAGTTTGCGAGA registered a TetR repression strength of 0.417. On to TCCCAAAGAGTTACCGAGA, for which the TetR repression strength was determined as 0.287.

On to TCCCGTAGAGTTTTGGAGA, for which the TetR repression strength is 0.0915. Take TCCCCTGCAGTGGTGGAGA: the TetR repression strength is 0.314. Next, TCCCTACCAGTATAGGAGA: 0.0137.

On to TCCCTCTGAGTGAGTGAGA, for which the TetR repression strength worked out at 0.357. Next, TCCCGATGAGTACGTGAGA: 0.0896; TCCCCGCAAGTCGTCGAGA: 0.178; TCCCTGCTAGTTGAAGAGA: 0.214. Next, TCCCTTCTAGTTCTGGAGA: 0.402.

As to TCCCACTCAGTTTCGGAGA, the TetR repression strength came out at 0.223. As for TCCCAGTGAGTGATCGAGA, the figure is 0.162; as for TCCCGTCCAGTTGGAGAGA, 0.169; as for TCCCCTACAGTGAGGGAGA, 0.029. For the sequence TCCCACTGAGTCCGGGAGA, the TetR repression strength was 0.368. TCCCTGGTAGTGCGGGAGA came in with a TetR repression strength of 0.00546. Next, TCCCGTTCAGTAACTGAGA: 0.351; TCCCTGCGAGTCGTGGAGA: 0.319; TCCCGTATAGTGGTGGAGA: 0.0729. Next, TCCCAACGAGTAGTCGAGA: 0.0311; TCCCGTTGAGTAGCCGAGA: 0.181.

The sequence TCCCTATCAGTGAGCGAGA came in with a TetR repression strength of 0.73.

TCCCACCGAGTACAGGAGA yielded a TetR repression strength of 0.219.

With TCCCTGTAAGTGTCTGAGA, the TetR repression strength was determined as 0.3. Next, TCCCATAAAGTGCGTGAGA: 0.166; TCCCGCATAGTCGGTGAGA: 0.193. As for TCCCAGGCAGTCGGTGAGA, the figure is 0.213; as for TCCCCTGTAGTTGATGAGA, 0.145. For the sequence TCCCCCCCAGTGGAGGAGA, the TetR repression strength came out at 0.208. As for TCCCCTTCAGTGTGCGAGA, the figure is 0.254; as for TCCCAAGTAGTGGCGGAGA, 0.126; as for TCCCGCCTAGTGTTGGAGA, 0.234.

Regarding TCCCGATGAGTCATTGAGA, the TetR repression strength turned out to be 0.274. As for TCCCGCGGAGTATATGAGA, the figure is 0.201; as for TCCCCATGAGTGGGCGAGA, 0.384. TCCCAGGCAGTCTACGAGA yielded a TetR repression strength of 0.212.

For the sequence TCCCTGTGAGTGTCGGAGA, the TetR repression strength was found to be 0.369. As for TCCCACGCAGTCGGGGAGA, the figure is 0.262. Take TCCCAAAAAGTCTATGAGA: the TetR repression strength amounted to 0.392.

As to TCCCATTAAGTTTGTGAGA, the TetR repression strength was found to be 0.304.

Sequence TCCCTAGAAGTGGCGGAGA came in with a TetR repression strength of 0.0993. Next, TCCCTAGGAGTGGCGGAGA: 0.177; TCCCTCCAAGTTTTTGAGA: 0.522. Next, TCCCGGTGAGTATGGGAGA: 0.21; TCCCATGTAGTCGCAGAGA: 0.332. As for TCCCTTTTAGTGGTGGAGA, the figure is 0.212. As to TCCCATCTAGTGGTAGAGA, the TetR repression strength is 0.377. TCCCAGTGAGTGGCTGAGA registered a TetR repression strength of 0.145. Next, TCCCTACTAGTTGTTGAGA: 0.0558; TCCCAGCGAGTTCTAGAGA: 0.421; TCCCCTGAAGTTTTTGAGA: 0.323. Next, TCCCTGCGAGTGCGCGAGA: 0.208; TCCCCAGCAGTATCTGAGA: 0.312. Next, TCCCACGTAGTGATCGAGA: 0.229; TCCCTCGCAGTAAGCGAGA: 0.419; TCCCAGAAAGTGGGGGAGA: 0.278. TCCCGGTTAGTGACGGAGA: the TetR repression strength was determined as 0.375. As for TCCCGTGGAGTCATGGAGA, the figure is 0.127; as for TCCCTGGCAGTGTCTGAGA, 0.172. As for TCCCTGTCAGTCCTGGAGA, the figure is 0.403; as for TCCCCCAGAGTTAACGAGA, 0.207. As for TCCCAGAAAGTGTAGGAGA, the figure is 0.0624. Take TCCCAGGCAGTCTCTGAGA: the TetR repression strength amounted to 0.215.

In the case of TCCCTTCAAGTTTAGGAGA, the TetR repression strength came to 0.177. As for TCCCTGATAGTGACTGAGA, the figure is 0.29; as for TCCCTAGGAGTGATCGAGA, 0.448; as for TCCCACTTAGTCTGGGAGA, 0.115. On to TCCCGTGCAGTTTCCGAGA, for which the TetR repression strength amounted to 0.214.

In turn, TCCCTAGTAGTTTGTGAGA registered a TetR repression strength of 0.228. As for TCCCGCCTAGTCACTGAGA, the figure is 0.682. Next, TCCCCTACAGTACAGGAGA: 0.0811.

Turning to TCCCCTAGAGTCATGGAGA, the TetR repression strength is 0.0544.

TCCCGTTCAGTAGGCGAGA registered a TetR repression strength of 0.261. As for TCCCTCTTAGTTGAGGAGA, the figure is 0.288; as for TCCCGACGAGTCGTTGAGA, 0.157; as for TCCCTTCCAGTGGGTGAGA, 0.113. Next, TCCCTCGAAGTTCTTGAGA: 0.407. Sequence TCCCACGTAGTGGTCGAGA came in with a TetR repression strength of 0.0586. As for TCCCGTCCAGTGTTGGAGA, the figure is 0.316; as for TCCCACTGAGTCTTAGAGA, 0.311. As for TCCCCGCCAGTTCGCGAGA, the figure is 0.13; as for TCCCCAGTAGTGGGCGAGA, 0.963. As for TCCCGTAAAGTGTGGGAGA, the figure is 0.319.

Source of the values: a collection of fitness landscapes (doi:10.1038/s41467-024-54723-y).
